Where “and” joins values, the source holds several entries; their conditions need not be identical. Identical values can stand only once. This is one part of the list. These are further read-outs of the screen, such as a control signal, another cell line or another target. No call is given for them.
What was measured:
Experiment in all cases: Primary Screen for Target Class Profiling of Small Molecule Inhibitors of Methyltransferases
[1] = target: Glycine N-methyltransferase (Homo sapiens) (UniProt Q14749); conditions: purified enzyme, MTase-Glo SAH luminescence; measured here: GNMT inhibition; at 40 µM; stronger effect = lower value
Source text: (§1) PI: Matthew D. Hall Ph.D. and Quinlin M. Hanson Ph.D.
(§2) National Center for Advancing Translational Sciences (NCATS)
(§3) National Institute of Health (NIH), Rockville, MD
(§4) Target class profiling (TCP) is a chemical biology approach amenable to investigating understudied biological targets. TCP is achieved by developing a generalizable assay platform and applying it to screen a curated set of compound libraries against representative members of a target class. Small molecule methyltransferases (SMMTase) are a subclass of methyltransferase that act on metabolites to modulate signaling pathways, metabolize xenobiotics, or balance the available methyl pool. We screened four curated libraries totaling 27,574 unique compounds against the SMMTases nicotinamide N-methyltransferase (NNMT), phenylethanolamine N-methyltransferase (PNMT), histamine N-methyltransferase (HNMT), glycine N-methyltransferase (GNMT), catechol O-methyltransferase (COMT), and guanidinoacetate N-methyltransferase (GAMT). The data generated by this TCP can be leveraged for informed tool molecule development. For example, in the associated publication we identified a chemotype of HNMT-selective inhibitors. Additionally, we identified a putative SMMTase-selective inhibitor with potential as a tool molecule for studying broader methyltransferase biology.
(§5) High-through put screening assays were developed at the National Center for Advancing Translational Science (NCATS) for the enzymes NNMT, PNMT, HNMT, GNMT, COMT, and GAMT. Enzymatic activity was measured as a function of SAM cofactor conversion using the MTase Glo kit (Promega) for all enzymes. All assays were performed in 1536-well format with substrates and SAM concentrations at KM values. Enzyme concentration and assay timing were optimized for 10-20% SAM conversion. Initial screening of 27,574 compounds was done as single-point assays using the highest compound concentration (40 uM). […] These compounds were replated in 11-point dose response and assayed against NNMT, PNMT, HNMT, GNMT, COMT, GAMT, and a counter-assay. The IC50 and efficacy (maximal response) values were determined for each dose-response curve. These values are also accounted for in the area under the curve (AUC) values.
(§6) PROTOCOL TABLE (as described by Inglese J, Shamu CE and Guy RK. 2007)
(§7) SEQUENCE No. (e.g., 1, 2, 3, etc.); […] (e.g., Cells, Incubation, Reagent, etc.); VALUE; DESCRIPTION.
(§8) 1; Reagent; 2 uL; SMMTase Enzyme (2x) in reaction buffer, columns 1- 48.
(§9) 2; Reagent; 1 uL; SAM (4x) in reaction buffer, columns 1-48.
(§10) 3; Controls; 23 nL; DMSO in column 4; sinefungin in DMSO (0 uM - 40 uM) in 7-point 1:2 dilution series (n = 2) in column 2.
(§11) 4; Compounds; 23 nL; Columns 5-48.
(§12) 5; Reagent; 1 uL; Substrate (4x) in reaction buffer, columns 2-48.
(§13) 6; Time; 20-30 min; Incubation.
(§14) 7; Reagent; 1 uL; MTase-Glo reagent (5X), columns 1-48.
(§15) 8; Time; 30 min; Incubation.
(§16) 9; Reagent; 5 uL; MTase-Glo Detection reagent, columns 1-48.
(§17) 10; Time; 30 min; Incubation, luminescence evolution.
(§18) 11; Detection; Luminescence; ViewLux uHTS Microplate Imager (PerkinElmer).
(§19) NOTES (numbers refer to Sequence numbers above)
(§20) 1, 2, 5. White Medium Binding Greiner 1536-well plates (Cat #789175-F, Greiner Bio-One, Monroe, NC); Reaction buffer: 50 mM Tris, pH 8.0, 3 mM MgCl2, 1 mM EDTA, 50 mM NaCl, 1 mM DTT, and 0.1 mg/mL BSA. Evaporation was prevented by covering assay plates with metal lids containing holes to allow gas diffusion.
(§21) 1. Six SMMTase were profiled: HNMT, GNMT, PNMT, COMT, NNMT, GAMT
(§22) 5. The corresponding substrate was used for each enzyme: HNMT - 5.3 uM Histamine; GNMT - >500 uM Glycine; PNMT - 16.2 uM Norephinephrine; COMT - 13.7 uM Norephinephrine; NNMT - 3.8 uM Nicotinamide; GAMT - 2.5 uM Guanidinoacetate.6, 8, 10. Room temperature
(§23) 6. Final reaction conditions: 10 nM COMT, 5 uM SAM, 15 uM norepinephrine, 50 mM Tris, pH 8.0, 3 mM MgCl2, 1 mM EDTA, 50 mM NaCl, 1 mM DTT, and 0.1 mg/mL BSA; refer to tables 2 and S1 for specific timing.
8. […]

[2] = target: Guanidinoacetate N-methyltransferase (Homo sapiens) (UniProt Q14353); conditions: purified enzyme, MTase-Glo SAH luminescence; measured here: GAMT inhibition; at 40 µM; stronger effect = lower value
Source text: as §1, §2, §3, §4, §5, §6, §7, §8, §9, §10, §11, §12, §13, §14, §15, §16, §17, §18, §19, §20, §21, §22, §23
8. […]

[3] = target: Histamine N-methyltransferase (Homo sapiens) (UniProt P50135); conditions: purified enzyme, MTase-Glo SAH luminescence; measured here: HNMT inhibition; at 40 µM; stronger effect = lower value
Source text: as §1, §2, §3, §4, §5, §6, §7, §8, §9, §10, §11, §12, §13, §14, §15, §16, §17, §18, §19, §20, §21, §22, §23
8. […]

[4] = target: Nicotinamide N-methyltransferase (Homo sapiens) (UniProt P40261); conditions: purified enzyme, MTase-Glo SAH luminescence; measured here: NNMT inhibition; at 40 µM; stronger effect = lower value
Source text: as §1, §2, §3, §4, §5, §6, §7, §8, §9, §10, §11, §12, §13, §14, §15, §16, §17, §18, §19, §20, §21, §22, §23
8. […]

[5] = target: Phenylethanolamine N-methyltransferase (Homo sapiens) (UniProt P11086); conditions: purified enzyme, MTase-Glo SAH luminescence; measured here: PNMT inhibition; at 40 µM; stronger effect = lower value
Source text: as §1, §2, §3, §4, §5, §6, §7, §8, §9, §10, §11, §12, §13, §14, §15, §16, §17, §18, §19, §20, §21, §22, §23
8. […]
On the % scale 0 is the no-effect control and ±100 the full control effect.

Row | SMILES | activity change, negative = inhibition [1] | activity change, negative = inhibition [2] | activity change, negative = inhibition [3] | activity change, negative = inhibition [4] | activity change, negative = inhibition [5]
1 | CCCn1c(=O)c2cc(Cl)ccc2n2c(SCc3cccc(F)c3)nnc12 | -19.2% | 3.97% | 0.771% | -11.1% | 0.556%
2 | CC(C)c1noc(Cn2nc(-c3ccccc3)c3ccccc3c2=O)n1 | -1.87% | -1.65% | 0.418% | -1.27% | -1.23%
3 | CN(CCN1CCCCCC1)C(=O)c1cc(COc2ccccc2)[nH]n1 | -5.34% | -1.95% | -18.8% | -8.32% | 6.91%
4 | O=C(O)c1ccc(NC(=O)[C@H](CC2CCCC2)n2cnc(C(F)(F)F)c2)nc1 | 2.93% | 1.02% | 9.32% | -14.5% | 7.19%
5 | O=C(c1ccc2c(=O)nc3c(-c4ccc(Cl)cc4)n[nH]n3c2c1)N1CCN(Cc2ccccc2)CC1 | -30.3% | 1.91% | -1.06% | 0.081% | -0.546%
6 | COc1ccc(CNC(=O)[C@@H]2CCC[C@@H](NCc3cccnc3)CN(C)C(=O)C2)cc1 | -3.67% | -6.84% | -1.38% | -9.33% | -5.61%
7 | Cc1cccc(C2c3cccn3-c3sc4c(c3CN2C(=O)Nc2ccccc2F)CCCC4)c1 (stereo not drawn) | -4.41% | 3.23% | -6.21% | -1.57% | -0.198%
8 | COc1ccc(S(=O)(=O)c2nnn3c2nc(Nc2cccc(C)c2)c2ccccc23)cc1 | -1.67% | 5.38% | 3.71% | 3.02% | -3.84%
9 | O[C@@H]1[C@@H](Cn2cc(C3CC3)nn2)C[C@@H](NCc2nccs2)[C@@H]1O | -2.02% | 0.092% | 0.419% | 3.51% | -3.31%
10 | COc1ccc(CN2C(=O)c3ccc(-c4ccco4)n3CC2(C)C(=O)NC2CCCCC2)cc1OC (stereo not drawn) | -5.77% | 2.38% | -0.764% | -8.77% | -1.44%
11 | COCC1CN(C)CC12CCN(C(=O)Cc1ccc(OC)c(Cl)c1)CC2 (stereo not drawn) | -7.17% | -4.92% | -26.7% | -6.51% | 0.257%
12 | CCC(C)NC(=O)c1ccc2c(=O)n(C)c3nnc(SCc4ccccc4Cl)n3c2c1 (stereo not drawn) | 5.33% | 0.334% | 9.19% | 4.46% | 5.25%
13 | COCCNC(=O)c1ccc2c(=O)nc3c(-c4ccccc4)n[nH]n3c2c1 | 4.09% | 3.94% | 4.22% | 7.13% | 3.09%
14 | O=C(Cn1nc2n(Cc3ccccc3)c(=O)c3ccccc3n2c1=O)c1cccc(Cl)c1 | 0.929% | 7.56% | -0.903% | -10% | 2.18%
15 | C=C1[C@H]2CC[C@]3(O)[C@@](CC[C@@H]4[C@](C)(C(=O)O)CCC[C@]43C)(C2)[C@H]1OC(=O)/C(C)=C\C | 1.19% | -1.8% | 8.78% | -14.1% | 4.61%
16 | CN(C)CC(C)(C)CNc1nn2c(-c3ccccc3)nnc2cc1C1CCC1 | 4.22% | 7.51% | 11.5% | -6.42% | 4.08%
17 | COCCN1CCOC[C@H]2CCN(C(=O)c3cnccn3)C[C@H]21 | -2.76% | -10.8% | -2.21% | -6.44% | -4.99%
18 | CCOC(=O)c1cc2ccc(O)cc2oc1=O | – | -1.93% | – | -21.5% | -13.3%
19 | COc1cccc([S+](=O)([O-])N2CCC3(C2)N=C(c2cccnc2)C(=O)N3)c1 (stereo not drawn) | -6.47% | -8.77% | -3.13% | -10.1% | -61.5%
20 | CC(N)=NCCCC[C@@H](N)C(=O)O | 2.45% | 9.28% | 6.41% | -5.33% | 1.39%
21 | CC(C)N(CCCNC(=O)Nc1ccc(C(C)(C)C)cc1)C[C@H]1O[C@@H](n2ccc3c(N)ncnc32)[C@H](O)[C@@H]1O | -53.9% and -12.1% | -20.7% | -72.2% and -47.7% | -35.6% and -46.2% | -31.6% and -39.3%
22 | Cc1ccc(C(=O)CSc2nnc3n(C)c(=O)c4ccc(C(=O)NC5CCCC5)cc4n23)cc1 | -1.6% | -2.74% | 3.56% | -3.11% | -4.67%
23 | CCCn1c(=O)c2ccc(C(=O)NCC(C)C)cc2n2c(=O)n(CC(=O)Nc3ccccc3F)nc12 | 4.69% | 0% | 6.93% | -2.67% | 5.14%
24 | CCOc1ccc(CNC(=O)c2cc3n(n2)CC(C)(C(=O)NCc2ccc(C)cc2)N(C)C3=O)cc1OC (stereo not drawn) | 3.64% | 7.49% | 0.042% | 0.369% | 0.724%
25 | CC1(C(=O)NC2CCCCCCC2)Cn2c(cc3occc32)C(=O)N1CCN1CCCCCC1 (stereo not drawn) | 2.58% | 0% | -14.4% | -7.05% | -5.01%
26 | C/C=C(\C)C(=O)OC[C@H]1O[C@H](O[C@H]2O[C@H](CO)[C@@H](O)[C@H](O)[C@H]2O[C@@H]2O[C@H](CO)[C@@H](O)[C@H](O)[C@H]2O)[C@H](O[C@@H]2O[C@H](CO)[C@@H](O)[C@H](O)[C@H]2O)[C@@H](O)[C@@H]1O | 0% | 9.18% | 11.7% | -2.6% | 7.84%
27 | CC(C)c1ccc(NC(=O)Cn2c(=O)oc3cc(S(=O)(=O)N4CCCCC4)ccc32)cc1 | -1.78% | 0% | 7.78% | 7.11% | -3.6%
28 | CCN1CC(c2nc(-c3ccc4nc[nH]c4c3)no2)CCC1=O (stereo not drawn) | -2.75% | -0.652% | -1.76% | -6.99% | -1.27%
29 | Cc1cnc(-c2cccnc2)n1C1CCCN(CC2CCCCC2)C1 (stereo not drawn) | -5.42% | -3.91% | -5.37% | -7.1% | -17.7%
30 | CCn1cc(CN(C)C(=O)CN2C(=O)C(Oc3ccc(F)cc3)C23CCCCC3)c(C)n1 (stereo not drawn) | -5.11% | -22% | -4.95% | -21% | -6.99%

Source: PubChem BioAssay AID1745853 (National Center for Advancing Translational Sciences (NCATS), 2022)
